Data from the antibiotic and cytotoxicity screens of Wong et al. (2023).
The list shows a part of the results.

Key:
[1] = tested on: HSkMC (human skeletal muscle cells); assay: cytotoxicity call (relative viability < 0.9); settings: 10 µM
[2] = tested on: HepG2; assay: cytotoxicity call (relative viability < 0.9); settings: 10 µM
[3] = tested on: S. aureus RN4220; assay: growth inhibition call (relative growth <= 0.2); settings: 50 µM

CC(=O)c1cc(S(=O)(=O)c2ccc(C)cc2)c(CC[C@H](COC(=O)NCCCCCC(=O)NO)NC(=O)Nc2nnc[nH]2)o1
inactive: cytotoxicity call [1] | cytotoxicity call [2] | growth inhibition call [3]

O=C(C[C@H]1CC[C@H]2[C@@H](COC[C@@H](O)CN2C(=O)c2ccccc2)O1)N1CCOCC1
inactive: cytotoxicity call [1] | cytotoxicity call [2] | growth inhibition call [3]

C[C@@H]1CCCCO[C@H](CN(C)S(=O)(=O)c2cccs2)[C@H](C)CN([C@H](C)CO)C(=O)c2cc(NC(=O)c3ccccc3)ccc2O1
inactive: cytotoxicity call [1] | cytotoxicity call [2] | growth inhibition call [3]

OC[C@@H](O)[C@@H](O)[C@@H](O)[C@@H](O)[C@@H](O)CO
inactive: cytotoxicity call [1] | cytotoxicity call [2] | growth inhibition call [3]

C[C@H]1CN([C@@H](C)CO)C(=O)Cc2cc(NS(=O)(=O)c3cn(C)cn3)ccc2O[C@@H]1CN(C)Cc1ccc(C(=O)Nc2ccccc2N)cc1
inactive: cytotoxicity call [1] | cytotoxicity call [2] | growth inhibition call [3]

COc1cc2c(cc1OC)CN(C(=O)[C@@H]1[C@H]3C(=O)O[C@H](c4ccccc4)[C@H](c4ccccc4)N3[C@H](c3ccc(OCCO)cc3)[C@@]13C(=O)Nc1ccc(C#CC4=CCCCC4)cc13)CC2
inactive: cytotoxicity call [1] | cytotoxicity call [2] | growth inhibition call [3]

C[C@@H]1CN([C@@H](C)CO)C(=O)CCCn2nncc2CO[C@H]1CN(C)C(=O)CCCN(C)C
inactive: cytotoxicity call [1] | cytotoxicity call [2] | growth inhibition call [3]

C[C@@H]1CCCCO[C@@H](CN(C)C(=O)CCC(F)(F)F)[C@H](C)CN([C@@H](C)CO)C(=O)c2cc(NS(=O)(=O)c3ccccc3)ccc2O1
inactive: cytotoxicity call [1] | cytotoxicity call [2] | growth inhibition call [3]

C[C@@H]1CN([C@@H](C)CO)C(=O)c2cc(C#CCN(C)C)cnc2O[C@@H]1CN(C)S(=O)(=O)c1cn(C)cn1
inactive: cytotoxicity call [1] | cytotoxicity call [2] | growth inhibition call [3]

C[C@@H]1CN([C@H](C)CO)C(=O)c2cc(NS(C)(=O)=O)ccc2O[C@@H]1CN(C)S(=O)(=O)c1ccc(Cl)cc1
inactive: cytotoxicity call [1] | cytotoxicity call [2] | growth inhibition call [3]

Cc1ccc(S(=O)(=O)N(C)C[C@H]2Oc3c(NS(=O)(=O)c4c(C)noc4C)cccc3C(=O)N([C@@H](C)CO)C[C@H]2C)cc1
inactive: cytotoxicity call [1] | cytotoxicity call [2] | growth inhibition call [3]

Cn1cnc(S(=O)(=O)N[C@@H]2C=C[C@H](CC(=O)NCC3CC3)O[C@H]2CO)c1
inactive: cytotoxicity call [1] | cytotoxicity call [2] | growth inhibition call [3]

COc1ccccc1C#Cc1ccc2c(c1)O[C@H](CN(C)C(C)=O)[C@H](C)CN([C@H](C)CO)S2(=O)=O
inactive: cytotoxicity call [1] | cytotoxicity call [2] | growth inhibition call [3]

O=C1NC[C@@H](c2ccccc2)OC(=O)[C@@H](Cc2ccc(F)cc2)CC/C=C/C[C@@H]1CC(=O)N(CCO)Cc1ccccc1
inactive: cytotoxicity call [1] | cytotoxicity call [2] | growth inhibition call [3]

CCc1ccc(OC[C@@H](O)CN)cc1
inactive: cytotoxicity call [1] | cytotoxicity call [2] | growth inhibition call [3]

C[C@@H]1CCCCO[C@@H](CN(C)Cc2ccncc2)[C@H](C)CN([C@H](C)CO)C(=O)c2cc(NC(=O)Nc3ccc(F)cc3)ccc2O1
inactive: cytotoxicity call [1] | cytotoxicity call [2] | growth inhibition call [3]

CC(C)NC(=O)Nc1ccc2c(c1)C(=O)N([C@H](C)CO)C[C@H](C)[C@H](CN(C)S(=O)(=O)c1ccccc1)O2
inactive: cytotoxicity call [1] | cytotoxicity call [2] | growth inhibition call [3]

C[C@H](CO)N1C[C@H](C)[C@@H](CN(C)S(=O)(=O)c2ccccc2)OCCCC[C@H](C)Oc2ccc(NS(=O)(=O)c3cn(C)cn3)cc2C1=O
inactive: cytotoxicity call [1] | cytotoxicity call [2] | growth inhibition call [3]

COc1ccc(CN(C)C[C@H]2OCCCC[C@H](C)Oc3ccc(NC(=O)c4ccccc4)cc3C(=O)N([C@@H](C)CO)C[C@@H]2C)cc1
inactive: cytotoxicity call [1] | cytotoxicity call [2] | growth inhibition call [3]

CCS(=O)(=O)Nc1ccc2c(c1)C(=O)N(C)[C@@H]1CC[C@@H](CC(=O)N[C@@H]3CCN(Cc4ccccc4)C3)O[C@@H]1CO2
inactive: cytotoxicity call [1] | cytotoxicity call [2] | growth inhibition call [3]
